Tested on: SARS-CoV-2
Assay: Syrian hamster model of COVID-19, intraperitoneal treatment
Details: 2 dpi; IP; 2 at 110 mg/kg/day qd, Molnupiravir 220 mg/kg/day bid

Row | Structure (SMILES) | Viral titer in lungs versus vehicle controls
1 | Nc1cc2c(ncn2[C@@H]2O[C@H](CO)[C@@H](O)[C@H]2O)c(=O)[nH]1 [Compound 2, 3-Deazaguanosine] | lower than that in those of vehicle controls
2 | CC(C)C(=O)OC[C@H]1O[C@@H](n2ccc(NO)nc2=O)[C@H](O)[C@@H]1O [Molnupiravir, reference compound] | lower than that in those of vehicle controls

Reference: PMC11960675, “3-Deazaguanosine inhibits SARS-CoV-2 viral replication and reduces the risk of COVID-19 pneumonia in hamster” (iScience, 2025)
